Test results as given in PubChem BioAssay (NCI).
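Dose response: 5 concentrations. Exposure: 48 h. Format: 96-well plates. Endpoint: linear interpolation; highest concentration if not reached. Abbreviation: GI50, concentration required for 50% inhibition of growth. Definition used: TGI = concentration required for complete inhibition of growth.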

System: NCI-H322M lung
Assay: NCI-60 cell line screen, 48 h

SMILES | TGI [µM] | GI50 [nM]
CCOC(=O)C(=CNC(=S)c1ccncc1)C(=O)OCC | > 100 | –
CCOc1c(OC)cc(C2c3cc4c(c(OCC)c3CC3COC(=O)C32)OCO4)cc1OC (stereo not given) | > 100 | –
CC[C@H](C)[C@H](NC(=O)C12CC(NC)(C1)C2)C(=O)N(C)[C@H](C[C@@H](OC(C)=O)c1nc(C(=O)N[C@@H](Cc2ccccc2)C[C@H](C)C(=O)OC)cs1)C(C)C | > 25 | 1320
COC1CC(OC2C(C)OC(OC3C(C)OC(OC4CCC5(C)C(=CCC6(O)C5CC(OC(=O)c5ccc(O)cc5)C5(C)C(O)(C(C)=O)CCC65O)C4)CC3OC)CC2OC)OC(C)C1O (stereo not given) (tested in a mixture with another compound) | > 100 | –
Nc1c(N2CCCCC2)c(=O)nc2[nH]/c(=C\c3ccco3)c(=O)n12 | > 100 | –
CC1=C(C)C2(C#N)C(=O)N3C(=NC(c4ccccc4)NC3c3ccccc3)C2(C#N)C(c2ccccc2)N1 (stereo not given) | > 100 | –
COc1ccc(NC(=O)CSc2nnc(-c3ccc(N=Cc4ccc(Cl)cc4)cc3)o2)cc1 | 89.8 | –
O=C(O)C1Cc2c([nH]c3ccccc23)C(CCCCO)N1 (stereo not given) | > 100 | –
O=C(C(Cl)Cl)N(O)c1ccccc1OCc1ccccc1 | > 100 | –
CN(c1nc(=[N+](C)C)ss1)C1CCCCC1 | > 100 | –
Oc1c(CNCCCN2CCCC2)cc(Cl)c2cccnc12 | 20.4 | –
O=C1CC(Cl)c2c1csc2Br (stereo not given) | 36.5 | –
COC(=O)c1oc2c(C(C)=O)c(OCCN3CCOCC3)c(OC)cc2c1C | > 100 | > 100000
